Assay results from a collection of fitness landscapes (doi:10.1126/science.1257360).
This is one part of the list.

B1: PhoQ; a variant is named by its letters at X, in order, P23837 (parent)
chain: MKKLLRLFFPLSLRVRFLLATAAVVLVLSLAYGMVALIGYSVSFDKTTFRLLRGESNLFYTLAKWENNKLHVELPENIDKQSPTMTLIYDENGQLLWAQRDVPWLMKMIQPDWLKSNGFHEIEADVNDTSLLLSGDHSIQQQLQEVREDDDDAEMTHSVAVNVYPATSRMPKLTIVVVDTIPVELKSSYMVWSWFIYVLSANLLLVIPLLWVAAWWSLRPIEALAKEVRELEEHNRELLNPATTRELTSLVRNLNRLLKSERERYDKYRTTLTDLTHSLKTPLXXLQXXLRSLRSEKMSVSDAEPVMLEQISRISQQIGYYLHRASMRGGTLLSRELHPVAPLLDNLTSALNKVYQRKGVNISLDISPEISFVGEQNDFVEVMGNVLDNACKYCLEFVEISARQTDEHLYIVVEDDGPGIPLSKREVIFDRGQRVDTLRPGQGVGLAVAREITEQYEGKIVAGESMLGGARMEVIFGRQHSAPKDE

Variants of: B1
Experiment: enrichment ratio after two sorts for PhoP signalling (ratio (wild type AVST 3.29)); higher = more functional
Conditions: with PhoP (E. coli)

Row | Variant | enrichment ratio
1 | KKKT | ≤ 0.25
2 | CRSF | ≤ 0.25
3 | QFIA | ≤ 0.25
4 | QMVH | ≤ 0.25
5 | IYVM | ≤ 0.25
6 | LWTD | ≤ 0.25
7 | HSAR | ≤ 0.25
8 | DNTT | ≤ 0.25
9 | TDNC | 13.4
10 | SIND | 2.97
11 | PIFP | ≤ 0.25
12 | SCHQ | ≤ 0.25
13 | EQHH | ≤ 0.25
14 | NIPY | ≤ 0.25
15 | MIMM | ≤ 0.25
16 | TTIQ | 0.626
17 | EYHP | ≤ 0.25
18 | MPFH | ≤ 0.25
19 | WEPA | ≤ 0.25
20 | LFML | ≤ 0.25
21 | MPED | ≤ 0.25
22 | PTHW | ≤ 0.25
23 | LEIR | 0.352
24 | VPMA | ≤ 0.25
25 | VTHP | ≤ 0.25

Row | Variant | enrichment ratio
26 | NMYT | ≤ 0.25
27 | WSGN | ≤ 0.25
28 | NDGP | ≤ 0.25
29 | DPCS | ≤ 0.25
30 | YGKG | ≤ 0.25
31 | MVKR | ≤ 0.25
32 | ANMS | 11.6
33 | KQPR | ≤ 0.25
34 | TFVE | ≤ 0.25
35 | IRWN | ≤ 0.25
36 | QGKH | ≤ 0.25
37 | FKHH | ≤ 0.25
38 | NYGS | ≤ 0.25
39 | HHIY | ≤ 0.25
40 | LDKQ | ≤ 0.25
41 | PKAT | ≤ 0.25
42 | WVQW | ≤ 0.25
43 | WKSG | ≤ 0.25
44 | LDTY | ≤ 0.25
45 | KTIP | ≤ 0.25
46 | YHVL | ≤ 0.25
47 | DMVR | ≤ 0.25
48 | NPAY | ≤ 0.25
49 | PLDY | ≤ 0.25
50 | PMRR | ≤ 0.25

Row | Variant | enrichment ratio
51 | VHRT | ≤ 0.25
52 | VQAQ | ≤ 0.25
53 | MEHG | 11.9
54 | FCIN | ≤ 0.25
55 | TAHS | 5.23
56 | LMFK | ≤ 0.25
57 | PIHH | ≤ 0.25
58 | LDKV | ≤ 0.25
59 | FGMQ | 21.1
60 | FGLQ | 9.95
61 | VWVW | ≤ 0.25
62 | FVGN | ≤ 0.25
63 | NYSN | ≤ 0.25
64 | KHFF | ≤ 0.25
65 | GEAF | ≤ 0.25
66 | LEWL | ≤ 0.25
67 | SRWD | ≤ 0.25
68 | QADL | 10.3
69 | DDFH | ≤ 0.25
70 | AKYV | ≤ 0.25
71 | LGAY | ≤ 0.25
72 | TWLQ | ≤ 0.25
73 | MDAE | ≤ 0.25
74 | VMNH | ≤ 0.25
75 | ITRF | ≤ 0.25

Row | Variant | enrichment ratio
76 | RRAF | ≤ 0.25
77 | FYWG | ≤ 0.25
78 | FKKL | ≤ 0.25
79 | MMYD | 5.08
80 | LDCW | ≤ 0.25
81 | WQMP | ≤ 0.25
82 | HDFS | ≤ 0.25
83 | FWQN | ≤ 0.25
84 | SLFG | ≤ 0.25
85 | PKVI | ≤ 0.25
86 | GGMH | 4.91
87 | IPYD | ≤ 0.25
88 | ADQK | ≤ 0.25
89 | WHYV | ≤ 0.25
90 | RVLQ | ≤ 0.25
91 | MSFL | 13.3
92 | IPPS | ≤ 0.25
93 | HICI | ≤ 0.25
94 | DIDQ | ≤ 0.25
95 | LSQE | ≤ 0.25
96 | PSWK | ≤ 0.25
97 | NQIG | ≤ 0.25
98 | ARGF | ≤ 0.25
99 | AGCF | 5.18
100 | SERV | ≤ 0.25

Row | Variant | enrichment ratio
101 | VLKP | ≤ 0.25
102 | LSVG | ≤ 0.25
103 | YIRM | ≤ 0.25
104 | YKKA | ≤ 0.25
105 | HAYD | ≤ 0.25
106 | RIVA | ≤ 0.25
107 | LYTR | ≤ 0.25
108 | QRHG | ≤ 0.25
109 | WVPK | ≤ 0.25
110 | NSFY | ≤ 0.25
111 | YSMG | 4.24
112 | NKSP | ≤ 0.25
113 | GWCM | ≤ 0.25
114 | PWSI | ≤ 0.25
115 | VREK | ≤ 0.25
116 | AACG | 9.08
117 | IKGF | ≤ 0.25
118 | GVVW | ≤ 0.25
119 | TMIC | ≤ 0.25
120 | SMRP | ≤ 0.25
121 | GLGS | ≤ 0.25
122 | IYRD | ≤ 0.25
123 | DCWC | ≤ 0.25
124 | AGHY | ≤ 0.25
125 | FAVL | 1.43

Row | Variant | enrichment ratio
126 | APCE | ≤ 0.25
127 | APIG | ≤ 0.25
128 | WDQC | ≤ 0.25
129 | SGRM | ≤ 0.25
130 | PQKV | ≤ 0.25
131 | DDMN | ≤ 0.25
132 | RFCN | ≤ 0.25
133 | QSVK | ≤ 0.25
134 | ILTH | ≤ 0.25
135 | GNRC | ≤ 0.25
136 | VWNW | ≤ 0.25
137 | YYDN | ≤ 0.25
138 | DFNC | ≤ 0.25
139 | SNYL | ≤ 0.25
140 | FTSG | ≤ 0.25
141 | PAKP | ≤ 0.25
142 | GTPH | ≤ 0.25
143 | QTPE | ≤ 0.25
144 | VTHY | ≤ 0.25
145 | ATSA | 3.61
146 | SACC | 5.72
147 | WPLD | 0.253
148 | TYWI | ≤ 0.25
149 | SIPF | ≤ 0.25
150 | HQQA | ≤ 0.25

Row | Variant | enrichment ratio
151 | LGAK | ≤ 0.25
152 | PQWY | ≤ 0.25
153 | HPVP | ≤ 0.25
154 | VKLI | 0.328
155 | FYSF | ≤ 0.25
156 | YDLM | ≤ 0.25
157 | MANH | ≤ 0.25
158 | MLMN | ≤ 0.25
159 | VTAQ | ≤ 0.25
160 | KCWN | ≤ 0.25
161 | MEKW | ≤ 0.25
162 | HWTI | ≤ 0.25
163 | AFTV | ≤ 0.25
164 | PLWV | ≤ 0.25
165 | TVMY | ≤ 0.25
166 | MQEY | ≤ 0.25
167 | EIPL | ≤ 0.25
168 | MDIE | ≤ 0.25
169 | TWSQ | ≤ 0.25
170 | QLPE | ≤ 0.25
171 | MMRC | ≤ 0.25
172 | KFAR | ≤ 0.25
173 | VMNY | ≤ 0.25
174 | NWMG | ≤ 0.25
175 | ILQH | ≤ 0.25

Row | Variant | enrichment ratio
176 | PTIN | ≤ 0.25
177 | WHLE | ≤ 0.25
178 | NWTQ | ≤ 0.25
179 | PRVV | ≤ 0.25
180 | GHMR | ≤ 0.25
181 | FMQR | ≤ 0.25
182 | FAKT | ≤ 0.25
183 | RAQS | ≤ 0.25
184 | TKKH | 2.99
185 | PFGR | ≤ 0.25
186 | VWNQ | ≤ 0.25
187 | DKSI | ≤ 0.25
188 | VEEM | ≤ 0.25
189 | PYQN | ≤ 0.25
190 | FTHA | ≤ 0.25
191 | NHPC | ≤ 0.25
192 | AVEK | ≤ 0.25
193 | WCMR | ≤ 0.25
194 | KHDS | ≤ 0.25
195 | CCLL | 0.38
